Laboratory results as given in the BET-seq Pho4 binding data (Le et al. 2018).
The other results are listed elsewhere or left out. These are noisy estimates, calculated here from bound and input reads.

molecular target: T1, Pho4 (S. cerevisiae) (UniProt P07270); experiment: relative binding free energy (BET-seq); higher = weaker binding; details: reference: library average
T1 sequence: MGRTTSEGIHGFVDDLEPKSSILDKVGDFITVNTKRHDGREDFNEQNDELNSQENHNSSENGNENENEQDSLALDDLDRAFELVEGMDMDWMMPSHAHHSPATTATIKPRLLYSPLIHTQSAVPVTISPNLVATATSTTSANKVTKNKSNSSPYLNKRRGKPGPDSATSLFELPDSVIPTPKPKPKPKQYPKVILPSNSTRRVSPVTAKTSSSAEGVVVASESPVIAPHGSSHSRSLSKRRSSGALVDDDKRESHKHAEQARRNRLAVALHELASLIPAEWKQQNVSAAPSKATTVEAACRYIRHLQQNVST

Sequence	relative binding free energy [kcal/mol]
TTAGACACGTGTCTGT	0.03
ATGGGCACGTGCGGGA	-0.2
GGTCTCACGTGGATAG	0.34
ATTCGCACGTGGGAAT	-0.11
AATTGCACGTGGTCAG	0.03
GTGACCACGTGAGGGG	0.15
TGTTGCACGTGTCAGG	0.03
AGTGACACGTGAGTGC	0.17
TTATTCACGTGCGGAA	0.18
GGGTCCACGTGACTTG	0.25
CGGTCCACGTGGTGGA	-0.15
GGCGTCACGTGATTTT	0.25
GTTGCCACGTGGGGCT	-0.26
TTTTTCACGTGGTGGA	0.27
GTGAGCACGTGGTTGC	-0.05
TAGGACACGTGGGCTG	-0.04
AGAGGCACGTGGATAG	-0.17
TAATTCACGTGTCATT	0.07
AAAGGCACGTGGATGG	-0.27
AGTATCACGTGGTGTT	0.06
AGGTTCACGTGGCGAA	0.15
TACAGCACGTGTTTTG	0
TATGGCACGTGATGGC	-0.03
ATTGTCACGTGTTTAG	0.07
CTTTACACGTGAATGT	0.29
TCTTGCACGTGGGAGT	-0.09

Sequence	relative binding free energy [kcal/mol]
TCGGTCACGTGGTCGG	0.01
CAGTACACGTGGAGTT	0.14
TCTTACACGTGGGTGG	-0.04
AGGTGCACGTGGGCTC	-0.13
CCAGTCACGTGTGGGG	0.16
GTGGGCACGTGGAGGC	0.03
TTACGCACGTGGCGGG	-0.29
TGTTACACGTGTGTCA	0.09
CCGTGCACGTGGGGTG	-0.25
TCTGGCACGTGTGCTA	-0.02
GGTAGCACGTGAGGAC	0.22
GTGTACACGTGGAGTT	0.2
TAAGGCACGTGGTAAT	-0.2
CAGGGCACGTGGGAGA	-0.12
AGGTTCACGTGTGGTA	0.32
CATCGCACGTGGTGGG	-0.13
GTGTACACGTGTTTCT	0.04
AATTGCACGTGGGCGA	-0.03
AGGTGCACGTGTGCGT	-0.13
GTAATCACGTGGAAGG	0.22
TTGTTCACGTGTACTG	0.35
TTATGCACGTGTACTT	-0.15
GTTCACACGTGGGGTA	0.01
AGATTCACGTGTTGGC	0.34
GCGGGCACGTGGAGTC	-0.01
AATTTCACGTGCGTCG	0.28

Sequence	relative binding free energy [kcal/mol]
TCGGGCACGTGTTTAA	-0.04
TTGGCCACGTGGTGAT	-0.19
AGAGGCACGTGTAGTC	0
AGGTGCACGTGGATAA	-0.01
TATTGCACGTGGAGTC	-0.1
ATAGGCACGTGCGTGT	-0.24
GTCATCACGTGCTGTT	0.2
TAGGCCACGTGGGGTA	-0.3
TGCTCCACGTGGTTGT	-0.09
GGCTACACGTGTGTAT	0.36
AAGGACACGTGTGGTA	-0.02
AGATACACGTGAAGGT	0.3
TGGTGCACGTGATAAA	0.16
TTCGTCACGTGGAGTA	0.05
GTAGTCACGTGTTTGA	0.05
CCAGGCACGTGGTGTG	-0.27
CTGCGCACGTGTGTTG	0
TACGGCACGTGTTGTC	0.01
GTGCGCACGTGATGTA	-0.02
TAGAACACGTGGTCGT	-0.08
TGTTTCACGTGGATAC	0.17
AGGGGCACGTGGGGAA	-0.18
ATTATCACGTGGGACT	0.09
TAGCGCACGTGGGGGA	-0.2
GGCTTCACGTGGGGGA	0.23
TGTGGCACGTGTTTTT	-0.01

Sequence	relative binding free energy [kcal/mol]
CATTTCACGTGGAGTA	0.34
AGAGTCACGTGGCGGC	0.04
GGCTGCACGTGTATTG	0.01
GGGTACACGTGACGGA	0.26
GGGGACACGTGATTGT	0.14
TACGTCACGTGAGTTG	0.16
AGGGTCACGTGAGCTT	0.23
ACGTTCACGTGTGTAG	0.33
TAGATCACGTGAAAGG	0.28
CATTTCACGTGAGGGT	0.37
CTGGGCACGTGGGGTC	-0.33
TCATTCACGTGATTTA	0.29
TGTGCCACGTGATAGG	-0.02
TTCTGCACGTGATGAG	0.08
GGTATCACGTGATTGA	0.31
CCGTGCACGTGGGATG	-0.13
CAGAGCACGTGTGTGT	-0.09
AGTTGCACGTGGTAGC	-0.21
GTTTACACGTGGAAAG	0.29
GACGTCACGTGTGGGT	0.22
GTTGCCACGTGTGGGG	0.04
AAGTTCACGTGTGGCG	0.27
AGGTGCACGTGCTGAA	-0.11
AGCGGCACGTGGAGTA	-0.31
TTTCTCACGTGGGGAG	0.03
CTTAACACGTGTGAGG	0.08

Sequence	relative binding free energy [kcal/mol]
GGAAACACGTGGTAGG	-0.07
TCGATCACGTGTGTTT	0.2
TGGCGCACGTGAAATG	0.23
AGGGGCACGTGAACGA	0.19
GTTGACACGTGGTAGT	-0.06
AGATGCACGTGGGTGT	-0.11
TGGCGCACGTGTAGTA	0.01
TAGTGCACGTGTGGCG	-0.01
AGTTACACGTGTGGTT	0.23
AATTGCACGTGGGTAA	-0.1
TTGTGCACGTGACTTA	0.03
TTGCTCACGTGAGGTC	0.37
GTAATCACGTGTTCGT	0.13
GAGAGCACGTGTGTGT	0.02
TGTTTCACGTGCATCG	0.21
GTTGACACGTGTGGCA	0.09
CTGGTCACGTGCTGGG	0.22
CTGGCCACGTGCGGTT	0.03
TTCGTCACGTGAATAT	0.27
GAGTTCACGTGGTGCT	0.22
GATTGCACGTGGCGGG	-0.1
TTGTCCACGTGTTAGG	0.15
TAGAACACGTGTGTGT	0.02
TAATACACGTGGGTTT	-0.18
GTATTCACGTGTGGAA	0.46
TATGTCACGTGAGGAG	0.25

Sequence	relative binding free energy [kcal/mol]
GTGTTCACGTGTCGTA	0.26
ATATACACGTGGGTGT	-0.11
TTCTACACGTGGGGAT	0.06
ATTAGCACGTGGTGAG	-0.14
GGTATCACGTGTTGTC	0.12
ATTTGCACGTGTTGTG	0.04
GGTGGCACGTGGGGTA	-0.16
GGAATCACGTGTTATA	0.12
GATGTCACGTGTGACT	0.28
GTTAGCACGTGGCTTT	0
GAGATCACGTGTGGAG	0.28
ATGGTCACGTGAAGTA	0.32
TGGATCACGTGCAATG	0.26
AGTTGCACGTGATCTG	0.11
GAAGTCACGTGTGGGG	0.18
AGGGGCACGTGACAGG	-0.13
TGGTTCACGTGGCGAA	0.12
ATTGGCACGTGGGGAA	-0.18
GATTGCACGTGTGTTT	0.16
AGAAGCACGTGGGGCA	-0.22
GATATCACGTGTGGAA	0.15
TCTTTCACGTGTATTA	0.26
GTCTTCACGTGTTAGT	0.33
GGTTCCACGTGGTATT	0.03
GGAGACACGTGGTAGT	-0.18
TGATTCACGTGTTTAA	0.25

Sequence	relative binding free energy [kcal/mol]
TGCTACACGTGTTGGA	0.16
GAGGTCACGTGGTAAA	0.19
AAATCCACGTGTGGTT	0.21
GTGACCACGTGTTGGG	-0.21
ATGCACACGTGTGGTG	-0.07
GGTATCACGTGGTCTT	0.22
GAAGTCACGTGGGTTT	0.1
GTCTACACGTGAGGGG	0.26
TGGGGCACGTGATACA	0.09
ATGTCCACGTGTGTGC	0.12
AGTGCCACGTGTGGCT	-0.03
GAGGGCACGTGGTCAT	-0.14
TGAGGCACGTGATAAG	-0.12
CATAGCACGTGGGTAT	-0.19
AAAGGCACGTGTGTCG	-0.13
GTTCTCACGTGCATTG	0.3
ATAGTCACGTGAATTA	0.34
GGAGGCACGTGCTGGC	-0.21
ATTATCACGTGAGTAG	0.28
GAGGTCACGTGCATTT	0.3
ATTGTCACGTGATGTG	0.17
TGTTTCACGTGTACAG	0.29
GGCGTCACGTGTATTT	0.29
CGTGACACGTGTGTAT	0.01
TGATGCACGTGGTGAT	0.03
TATGGCACGTGGCGTG	-0.19

Sequence	relative binding free energy [kcal/mol]
GTGTTCACGTGAAGGT	0.49
TGTGGCACGTGTAGAC	0.02
AGGGACACGTGAGGTG	0.19
TGTTACACGTGTGGAG	0.2
CATGACACGTGTTGTG	0
TTCGCCACGTGTGGGA	-0.01
CCGGCCACGTGTGGGG	-0.06
TATTTCACGTGTGAAA	0.39
TGAATCACGTGTGCTG	0.13
TGGGCCACGTGATGAG	0.01
TTGTGCACGTGTTGCG	0.05
TGCGGCACGTGGTTCG	-0.16
AATATCACGTGCGTTA	0.21
AGTCACACGTGGTTTA	0.2
ATGGCCACGTGTTCGT	-0.07
AATTACACGTGATGAT	0.17
CGGTTCACGTGACGGG	0.32
TTAGGCACGTGTGGAC	-0.05
TGGACCACGTGTTGTT	0.08
GAACGCACGTGTTTGG	-0.05
TGAAGCACGTGCATGG	-0.09
TGATACACGTGTGGCG	-0.06
GGGTGCACGTGTCTGG	0.04
TAAGACACGTGGAATG	0.17
GCGGGCACGTGAAGGT	0.32
TAGTTCACGTGCCGGT	0.26

Sequence	relative binding free energy [kcal/mol]
ACGGGCACGTGTTATG	-0.29
AGCTGCACGTGAGTCG	0.43
TAGGACACGTGCAGTG	-0.11
GGTGTCACGTGTTGAG	0.12
GTACTCACGTGATGGG	0.23
AGAGTCACGTGGGCTG	-0.16
CGAGTCACGTGTGTGG	0.1
TTAGCCACGTGGTGGT	-0.12
AGGCTCACGTGGATGT	0.14
TTGCGCACGTGAGGAT	0.18
GGATGCACGTGAGTAG	0.23
TTGGTCACGTGGTGGC	0.18
TAGGTCACGTGGAGGA	0
TTTTGCACGTGTAAAG	0.16
TAATGCACGTGTGTGT	0.06
TTCGTCACGTGTCGGT	0.14
CGGTACACGTGGAGGT	-0.03
GCAGGCACGTGGGTAA	-0.2
TGATGCACGTGGCTGT	-0.1
AGTTACACGTGATTAT	0.17
GGTCCCACGTGGTGGA	-0.08
GTTGGCACGTGGGCCT	-0.14
